Several values for one entry are separate records, joined by “and”; a condition that tells them apart may be missing. Equal values may be shown once. Hit rate of the full screen: of about 16,000 compounds, about 40 (0.2%) were called active. Roughly 1% stayed inconclusive and do not appear here. The call rests on the fitted dose curve; in most records, active means well fitted activation curve with a large enough effect; inconclusive means small, poorly fitted or top-dose-only effect, or another doubt; inactive means no such curve, though single readings can be large or run the other way. The list shows a part of the results.
Target: Rap guanine nucleotide exchange factor 4 (Homo sapiens) (UniProt Q8WZA2)
Test: Validation qHTS for agonist of cAMP-regulated guanine nucleotide exchange factor 4 (EPAC2);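 further: exchange makes BODIPY-GDP fluorescence drop when released from Rap1B; series mostly up to about 150 µM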
Conditions: EPAC2 Rap1B BODIPY-GDP exchange, fluorescence; activation: stronger effect = higher value
In short: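 Fluorescent exchange assay: 100 nM EPAC2 with 250 nM RAP1B-BODIPY-GDP and 50 uM GDP; compound added, 5 min at room temperature, then read (ex 480/em 540 nm) every 5 min for 30 min. Normalized to 6.5 mM cAMP agonist control.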
On the % scale 0 is the no-effect control and ±100 the full control effect.

Chain of UniProt Q8WZA2 (Q8WZA2 whole entry, looked up): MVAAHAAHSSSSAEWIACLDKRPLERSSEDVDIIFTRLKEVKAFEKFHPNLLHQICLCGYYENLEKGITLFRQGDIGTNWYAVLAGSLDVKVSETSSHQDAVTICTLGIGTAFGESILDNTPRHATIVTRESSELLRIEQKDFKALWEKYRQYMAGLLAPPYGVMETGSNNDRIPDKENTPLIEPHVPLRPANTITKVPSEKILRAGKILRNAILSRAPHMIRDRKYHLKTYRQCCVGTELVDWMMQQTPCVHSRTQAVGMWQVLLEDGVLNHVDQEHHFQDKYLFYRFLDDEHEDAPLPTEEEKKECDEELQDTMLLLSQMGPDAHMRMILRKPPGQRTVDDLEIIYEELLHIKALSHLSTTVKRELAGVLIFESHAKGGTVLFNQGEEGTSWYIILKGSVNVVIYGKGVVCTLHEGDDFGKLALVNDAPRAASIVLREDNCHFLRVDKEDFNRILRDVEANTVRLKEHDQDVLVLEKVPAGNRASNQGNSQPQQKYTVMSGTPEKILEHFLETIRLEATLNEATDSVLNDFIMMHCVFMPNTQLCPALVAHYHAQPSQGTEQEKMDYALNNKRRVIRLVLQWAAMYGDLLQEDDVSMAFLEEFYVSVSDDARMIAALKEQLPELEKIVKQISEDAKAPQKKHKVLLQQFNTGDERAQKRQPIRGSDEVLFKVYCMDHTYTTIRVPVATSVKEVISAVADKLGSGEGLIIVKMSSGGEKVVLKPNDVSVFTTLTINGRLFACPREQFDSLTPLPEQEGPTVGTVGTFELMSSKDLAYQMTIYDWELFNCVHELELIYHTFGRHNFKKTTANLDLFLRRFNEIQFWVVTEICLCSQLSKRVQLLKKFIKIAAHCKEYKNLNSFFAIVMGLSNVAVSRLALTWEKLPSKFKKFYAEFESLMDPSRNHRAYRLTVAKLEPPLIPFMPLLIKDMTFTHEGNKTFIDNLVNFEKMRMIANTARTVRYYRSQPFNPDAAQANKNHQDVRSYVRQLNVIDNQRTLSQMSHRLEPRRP

activation, inactive:
COc1ccc(S(=O)(=O)NCc2nc(N3CCCC3)c3cccc(C)c3n2)cc1OC -13.4%
O=C(OC[C@H]1O[C@](O)(COC(=O)c2cccnc2)[C@@H](OC(=O)c2cccnc2)[C@@H]1OC(=O)c1cccnc1)c1cccnc1 -6.8%
CC[C@@]1(c2ccccc2)NC(=O)N(C)C1=O -3.56%
N[C@@H](Cc1cc(I)c(Oc2ccc(O)c(I)c2)c(I)c1)C(=O)O -4.69% and -0.0348%
Cc1cc(=O)oc2cc(O[C@@H]3O[C@H](C(=O)O)[C@@H](O)[C@H](O)[C@H]3O)ccc12 1.93%
COc1cc(OC)c2nc(-c3cc4c(c(OC)c3)OCCN(C(=O)CC3NC(=O)c5ccccc53)C4)cc(C)c2c1 (stereo not given) 7.32%
O=C(c1ccco1)N1CCC2(CCN(Cc3ccccc3)CC2)CC1 -14.1%
c1cncc(CNc2ncncc2-c2cccnc2)c1 3.38%
Cc1ccc2oc(-c3ccccc3)cc(=O)c2c1 0.141%
O=C(c1cnccn1)N1CCC2(CCCN(c3ccccn3)C2)CC1 0.0576%
CN1CCC(=C2c3ccccc3Sc3ccccc32)CC1 -13.4%
CC(C)c1c(C(=O)N2CCCCC2c2cccnc2)cnn1-c1nccc(-c2cccs2)n1 (stereo not given) -15.4%
Nc1c2ccccc2nc2ccccc12 -16.6% and 2.24%
COc1cccc(Nc2ncc3nc(-c4ccccc4)c(=O)n(C[C@H]4CCCO4)c3n2)c1 13.8%
CC(=O)NCCNc1cc(-c2ccccc2C(F)(F)F)ncn1 -13%
CCCCCCCCCCCC[n+]1ccc(/C=C/c2c[nH]c3ccccc23)c2ccccc21 -60.9%
CC(=O)[C@]1(O)CCC2C3CCC4=CC(=O)CC[C@@]4(C)C3CC[C@]21C (stereo not given in full) -19%
Cc1cnc(SCc2ccccn2)nc1C1CCCN(C(=O)c2coc3c2C(=O)CCC3)C1 (stereo not given) -0.704%
Cc1ccc2nc(/C=C/c3ccc(N(C)C)cc3)ccc2c1 -19.2%
COc1ccc(-c2nc3cnc(N4CCN(C)CC4)nc3n(CCC#N)c2=O)cc1 2.65%
CN(C)C(=O)c1ccc(-c2nc(NCc3ccccc3)c3ccccc3n2)cc1 -15.5%
COc1ccc(CN2CCC3(CC2)c2ccccc2[C@@H](NC(=O)c2ccccc2)[C@@H]3O)cc1O 3.4%
COc1ccc(CNc2ncnc3ccc(-c4cccnc4)cc23)c(OC)c1 -16.3%
Cc1ccc(=O)n(-c2ccccc2)c1 -7.66% and 8.46% and -28.9%
COC1=CC(=O)C(C(=O)c2ccccc2)=CC1=O -9.46%
COc1ccc2[nH]cc(CCNc3ncncc3-c3ccc(C(=O)N(C)C)cc3)c2c1 -19.4%
COc1cccc(-c2nc(N(C)C)c3ccccc3n2)c1 -2.76%
COc1ccc(S[C@@H](CCN2CC[C@H](C)CCC2=O)c2ccccc2)cc1 -18.7%
C=C1C[C@]23C[C@@]1(O)CC[C@H]2[C@@]12C=C[C@H](O)C(C)(C(=O)O1)[C@H]2[C@@H]3CC(=O)O -3.39%
COc1ccccc1CNc1ncncc1-c1cccnc1 -8.93%
COc1ccccc1-c1ccnc(-n2ncc(C(=O)NC(c3cccnc3)C(F)(F)F)c2C)n1 (stereo not given) -10.8%
CCNc1ncc2nc(-c3ccc(Cl)cc3)c(=O)n(Cc3cccs3)c2n1 -11.1%
COc1ccccc1C(=O)N[C@@H]1c2ccccc2C2(CCN(C(=O)c3csnn3)CC2)[C@H]1OC -15.3%
CC(C)C[C@H](NC(=O)C1OC1C(=O)O)C(=O)NCCCCN=C(N)N (stereo not given in full) -51.2%
COc1ccccc1N1CCN(CCN(C(=O)c2ccc(F)cc2)c2ccccn2)CC1 -20.9%
c1ccc(-c2ccccn2)nc1 -28.3%
CC1(C)O[C@@H]2C[C@H]3[C@@H]4CCC5=CC(=O)C=C[C@]5(C)[C@H]4[C@@H](O)C[C@]3(C)[C@]2(C(=O)CO)O1 -19.5%
O=C(O)Cc1cc(I)c(Oc2cc(I)c(O)c(I)c2)c(I)c1 -8.12%
CC(=O)N1CCC2(CC1)CCN(c1ccccc1)CC2 -24%
CNc1nc(-c2ccccc2OC)nc2ccccc12 -12.2%
OCC(O)CO -2.55%
COc1ccccc1-c1nccc(NC2CCNCC2)n1 -9.82%
CCN(CC)CCOc1ccc2c(c1)C(=O)c1cc(OCCN(CC)CC)ccc1-2 -6.88%
CC/C(=C\c1ccc(C(=O)OC)cc1)c1cc(OC)cc2oc3ccccc3c12 -11.3%
CCS(=O)(=O)NCc1c(C)ncc2c1CCN(C(=O)c1csc(-c3cccs3)n1)C2 0.958%
Oc1ccc(Cn2cc[nH]c2=S)cc1 -8.7%
C=C[C@H](CC(C)C)N(Cc1ccccc1)S(=O)(=O)N(Cc1ccccc1)[C@@H](C=C)CC(C)C -16.1%
COc1ccc(-c2ccnc(-n3ncc(C(=O)NC(C)(C)CO)c3C3CC3)n2)cc1F 3.72%
CCCCC/C=C\C\C=C/C=C/C=C/[C@@H](SC[C@H](N)C(=O)NCC(=O)O)[C@@H](O)CCCC(=O)O 3.04%
CCC1CN(CCNC(=O)c2cn3cc(C)ccc3n2)Cc2cc(OC)ccc2O1 (stereo not given) 4.6%
Nc1ccn([C@@H]2O[C@H](CO)[C@@H](O)C2O)c(=O)n1 (stereo not given in full) -4.27% and -49.3%
CN1CCN(c2ccnc(-c3ccoc3)n2)CC1 4.77%
COc1cc(OC)c2c(=O)c(-c3ccccc3)coc2c1 5.29%
COCC(=O)N1CCC2(CC1)CN(c1ccccn1)C2 2.25%
COC(=O)c1cccc(C(=O)N2CCc3c(cnc(C)c3CNC(=O)/C=C/c3cccs3)C2)c1 -10.5%

From PubChem BioAssay AID1645887 (National Center for Advancing Translational Sciences (NCATS), 2021)
